# Measured values taken from PubChem BioAssay AID1347073 (National Center for Advancing Translational Sciences (NCATS), 2019).
# About 200 (0.44%) of roughly 45,000 compounds were called active. Not shown: some 7% with an inconclusive outcome. Calls follow the shape of the dose curve; as a rule, active = well fitted activation curve with a large enough effect; inconclusive = small, poorly fitted or top-dose-only effect; inactive = no such curve, though single readings can be large or run the other way. The list shows a part of the results.
# Assay: qHTS of TDP-43 Inhibitors: NCGC Sytravon Library Screen; also: 0% is about no effect; nearly all actives have a fitted effect of over 55% in size
# Details: yeast TDP-43 toxicity rescue, BacTiter-Glo growth, 24 h; series mostly up to 46.1 µM; growth rescue (activation): at the top concentration
# Procedure, shortened: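 TDP-43-expressing yeast, pregrown in raffinose, seeded at OD600 0.02 in galactose medium with compound for 24 hr at 30 deg C. Growth read by BacTiter-Glo luminescence, so rescue of toxicity appears as activation.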
row,Compound,growth rescue (activation)
1,COc1cc(OC)cc(-c2noc(-c3csc([C@H]4C[C@H](O)[C@@H](CO)O4)n3)n2)c1,inactive: -2.88%
2,COc1ccc2c(C)cc(SCC(=O)NC3CCCCC3)nc2c1,inactive: -17.7%
3,O=[N+]([O-])c1ccc(OCC(O)CNC2CCCC2)cc1 (centres undefined),inactive: 11%
4,CCOC(=O)c1ccccc1NC(=O)c1cccc([N+](=O)[O-])c1,inactive: 5.29%
5,CCCOC(=O)c1c(NC(=O)C2C3C=CC(C3)C2C(=O)O)sc2c1CCC(C)C2 (centres undefined),inactive: -7.57%
6,COc1cc(/C=N/NC(=O)C(=O)NCc2ccco2)cc(Br)c1O,inactive: 6.45%
7,CC(/C=N/NC(=O)Cn1cnc2c1c(=O)n(C)c(=O)n2C)=C\c1ccccc1,inactive: 16.2%
8,C/C(=N\NC(=O)c1cc(C)oc1C)c1ccc2ccccc2c1,inactive: 16.3%
9,O=C(NCc1ccncc1)C1CCCN1S(=O)(=O)c1ccc(Cl)cc1 (centres undefined),inactive: 4.52%
10,CCN(C(C)=O)c1nc(CCl)cs1,inactive: 16.2%
11,CCCOc1ccc(C2=CSC3=NCCN23)cc1[N+](=O)[O-],inactive: 8.94%
12,CC(CCc1ccccc1)NC(=O)c1ccccc1C(=O)O (centres undefined),inactive: 2.42%
13,COc1ccc(NC(=O)Nc2nnc(-c3ccccc3F)s2)cc1,inactive: 11.5%
14,COc1cc(C(C(=O)NC2CCCCC2)N(C(=O)Cc2c[nH]c3ccccc23)c2ccccc2C)cc(OC)c1OC (centres undefined),inactive: 23.6%
15,Cc1cc([N+](=O)[O-])nn1CC(=O)NCCCN1CCOCC1,inactive: -3.37%
16,CCn1cc(C(=O)O)c(=O)c2cnc(N3CCN(C(=S)NC(=O)c4ccc(OC)cc4)CC3)nc21,inactive: 4.73%
17,CCc1nnc(NC(=O)CCN(c2ccc(C)cc2)S(=O)(=O)c2ccccc2)s1,inactive: 17%
18,Cc1cc(C)cc(-n2nnn(C3C/C(=N/NC(N)=S)C4OCC3O4)c2=S)c1 (centres undefined),inactive: 15.2%
19,O=C(NCc1cccnc1)c1csc([C@@H]2O[C@H](CO)[C@H](O)[C@H](O)[C@H]2O)n1,inactive: -0.177%
20,Cc1cc(C(=O)NC(Cc2ccccc2)C(=O)O)c(C)o1 (centres undefined),inactive: -2.19%
21,O=Cc1cnc(N2CCN(c3ccccc3)CC2)s1,inactive: -2.36%
22,Cc1ccccc1NC(=O)CSc1nc2scc(C)c2c(=O)[nH]1,inactive: -9.86%
23,Cc1cc(C(=O)N2CCC2(C)C(=O)NCCC#N)nn1C (centres undefined),inactive: 5.82%
24,CCCC(=O)OC1CCS(=O)(=O)c2sccc21 (centres undefined),inactive: -1.06%
25,CCc1cccc(C)c1NC(=O)COC(=O)Cc1ccsc1,inactive: -12.9%
26,COc1ccc(CC(NC(C)=O)C(=O)NC2CCN(S(=O)(=O)c3ccc(NC(C)=O)cc3)CC2)c(OC)c1 (centres undefined),inactive: 0.571%

row,Compound,growth rescue (activation)
1,C=CCS/C(=N\n1cnc2ccccc2c1=O)N(CC)CC,inactive: 3.08%
2,O=C(CNC(=O)c1ccco1)NNC(=O)c1n[nH]c(=O)c2ccccc12,inactive: 10.7%
3,Cc1ccc(C(=O)O)cc1NC(=O)C1CCN(S(=O)(=O)c2ccc3c(c2)OCCO3)CC1,inactive: -1.31%
4,CCN(CC)C(=O)c1ccc(COc2ccccc2Cl)o1,inactive: 26%
5,CCOc1ccc(Cn2c3ccc(OC)cc3c3nc4ccccc4nc32)cc1,inactive: 7.25%
6,CCOC(=O)c1ccc(NC(=O)c2cc3c(s2)CCC3)cc1,inactive: -5.34%
7,COc1ccc(C(O)(CCc2ccccc2)CCN2CCCCC2)cc1 (centres undefined),inactive: -3.07%
8,COc1ccc(-c2nc(CN3CCC(c4ccccc4)CC3)c(C)o2)cc1OC,inactive: 16.6%
9,CC1CCCCN1Cc1ccc(-c2nn[nH]n2)cc1 (centres undefined),inactive: 21.2%
10,CCC(C)(C)NC(=O)C(c1ccncc1)N(Cc1cccs1)C(=O)Cn1nnc2ccccc21 (centres undefined),inactive: -16.2%
11,COc1ccc(NC(=O)N2C3CCCC2CC(NC(=O)c2ccccc2)C3)cc1 (centres undefined),inactive: 20.3%
12,CCCC1=Nc2cc(C(=O)NCCOC)ccc2Sc2ccccc21,inactive: 7.39%
13,Cc1ccc(NC(=O)CSc2nc3c(c(=O)n(C)c(=O)n3C)n2C)cc1,inactive: -1.39%
14,CC(C)(CO)NCC(=O)Nc1cc(C(F)(F)F)cc(NC(=O)CNC(C)(C)CO)c1Cl,inactive: 12%
15,O=C(C[n+]1ccccc1)Nc1c(Cl)cc(Cl)cc1Cl,inactive: 7.74%
16,CN(C)C(CNC(=S)Nc1ccccc1Cl)c1cccnc1 (centres undefined),inactive: 7.41%
17,CC(C)NC(=O)c1cc(C2CCCCN2C(=O)c2ccc(C(C)C)cc2)on1 (centres undefined),inactive: 3.25%
18,COc1cc(/C=c2/sc3nc(-c4ccccc4)c(-c4ccccc4)n3c2=O)cc(OC)c1OC,inactive: 17.8%
19,c1ccc2c(N3CCCC3)nc(-c3ccncc3)nc2c1,inactive: 5.14%
20,O=C(Nc1cc(S(=O)(=O)Nc2ccccc2F)ccc1Cl)c1ccc(F)cc1F,inactive: 8.8%
21,COc1ccc(C)cc1NC(=O)C(OC(=O)c1cccc(S(=O)(=O)N(C)c2ccccc2)c1)c1ccccc1 (centres undefined),inactive: 4.48%
22,CCN(CC)S(=O)(=O)c1cccc(C(=O)N[C@H](C(=O)NC2=NCCS2)C(C)C)c1,inactive: 13.1%
23,COc1cc(NC(=O)COC(=O)c2cc(S(=O)(=O)N3CCOCC3)ccc2F)cc(OC)c1,inactive: 8.21%
24,COc1ccc(CCNC(=O)C/C(C)=N/NC(=O)c2ccc([N+](=O)[O-])cc2Cl)cc1OC,inactive: 9.82%
25,Cc1cc(C(F)(F)F)c(C#N)c(SCC(=O)Nc2nc3ccccc3s2)n1,inactive: 4.25%
26,COc1cccc(NC(=S)N(CCc2ccc(OC)c(OC)c2)Cc2ccccn2)c1,inactive: 3.37%

row,Compound,growth rescue (activation)
1,CCN1CCN(c2cc(C)c3cc(NC(=S)N4CCCC(C)C4)ccc3n2)CC1 (centres undefined),inactive: 20.6%
2,NC1CCCCC1N=Cc1c(O)n(CCc2ccc(F)cc2)c(=O)[nH]c1=O (centres undefined),inactive: 8.53%
3,COc1ccc(S(=O)(=O)N2CCCCC2)cc1NC(=O)C1COc2ccccc2O1 (centres undefined),inactive: 17.2%
4,CC(NC(=O)c1ccccc1NC(=O)c1ccccc1)C(=O)N1CCOCC1 (centres undefined),inactive: -2.04%
5,O=C(CN1CCN(CC(=O)Nc2ccc(-c3ccccc3)cc2)CC1)Nc1ccc(F)cc1,inactive: 21.5%
6,CN(Cc1ccccc1F)Cc1cc(=O)oc2cc(O)c(Cl)cc12,inactive: -10%
7,NS(=O)(=O)c1cccc(NC(=O)COC(=O)c2cc([N+](=O)[O-])ccc2N2CCCC2)c1,inactive: 0.355%
8,CC(C)(C)C(=O)Nc1ccc(C(=O)N/N=C/c2ccccc2OC(=O)c2ccc(Cl)cc2Cl)cc1,inactive: 9.55%
9,COc1cc(C(=O)N/N=C/c2ccccn2)cc(OC)c1OC,inactive: 1.33%
10,COc1cccc(N2CCN(c3c4c(nc5nncn35)CCC4)CC2)c1,inactive: 35.5%
11,COc1cccc(C(=O)COC(=O)CCCC(=O)NC2CCCCC2)c1,inactive: 12.9%
12,CS(=O)(=O)Nc1ccccc1C(=O)NCC1(N2CCCCC2)CCCCC1,inactive: 2.33%
13,Fc1ccc(-c2cn(-c3ccccc3)c3[n+]2CCS3)cc1,inactive: -12.8%
14,CC(C)NC(=O)C1(C)CCCCCN1C(=O)c1ccc(-c2ccccc2)cc1 (centres undefined),inactive: 11%
15,Cc1ccccc1OCCCC(=O)Nc1ccc(S(=O)(=O)Nc2onc(C)c2C)cc1,inactive: 13.2%
16,COc1ccc(S(=O)(=O)NCC2CCCN(C(=O)CC3CCCC3)C2)cc1 (centres undefined),inactive: -25.4%
17,COCCCN1C(=O)c2ccc(C(=O)OCC(=O)N(C)c3ccccc3)cc2C1=O,inactive: 9.97%
18,O=C(CCNS(=O)(=O)c1ccc(Cl)cc1)N1CCCCCC1,inactive: -6.63%
19,Cc1ccc(/C=C/C(=O)Nc2ccccc2C(N)=O)cc1,inactive: -3.97%
20,COc1ccc(C=O)cc1CN1CCCN(Cc2ccc(Cl)cc2)S1(=O)=O,inactive: -1.97%
21,COc1ccc(Cl)cc1NC(=O)c1cc(C)no1,inactive: 12.1%
22,Cc1cc(Cl)cc(C)c1OCCn1ccnc1,inactive: -7.64%
23,O=C(CSc1n[nH]c(-c2ccccn2)n1)Nc1ccc(F)cc1,inactive: 2.62%
24,O=C(CSc1nncs1)Nc1ccc(S(=O)(=O)N2CCCC2)cc1,inactive: 16.7%
25,Cc1ccc(C2C(C#N)=C(N)Oc3n[nH]c(-c4cccnc4)c32)o1 (centres undefined),inactive: 3.62%
26,COc1ccc(NC2(c3ccc(Cl)cc3)C(=O)c3ccccc3C2=O)cc1,inactive: -4.2%

row,Compound,growth rescue (activation)
1,Cc1ccc(NC(=O)c2cc(NC(=O)C3CC=CCC3C(=O)O)ccc2N2CCOCC2)cc1 (centres undefined),inactive: -0.106%
2,C=CCn1c(SCC(=O)Nc2nnc(CC)s2)nnc1-c1ccncc1,inactive: -9.26%
3,NC(=O)c1ccccc1NC(=O)CC1(CC(=O)O)CCCC1,inactive: 15.6%
4,C#CCOc1ccc2c3c(c(=O)oc2c1)CCCC3,inactive: 21.5%
5,O=C(Nc1nc2ccc(Cl)cc2s1)c1ccc(N2CCCCC2)c([N+](=O)[O-])c1,inactive: -4.11%
6,O=C(CSc1nnc(Nc2ccccc2)s1)Nc1cccc(S(=O)(=O)N2CCCCC2)c1,inactive: 22.1%
7,CC(NC(=S)Nc1ccc(S(=O)(=O)N2CCOCC2)cc1)C1CC2CCC1C2 (centres undefined),inactive: 2%
8,Cc1ccccc1NC(=O)N1C2CCCC1CC(NC(=O)C(C)(C)C)C2 (centres undefined),inactive: 6.13%
9,O=[N+]([O-])c1ccccc1CN1CCN(Cc2c[nH]c3ccccc23)CC1,inactive: 15.3%
10,CN(C(=O)CN1C(=O)c2ccccc2S1(=O)=O)C1CCCCC1,inactive: 2.94%
11,COCc1cc(=O)n2[nH]c(SCc3ccccc3)nc2n1,inactive: 3.02%
12,CCOC(=O)c1nc(-c2ccccc2)oc1N1CCOCC1,inactive: 22%
13,CC(=O)NCCNC(=O)c1ccc2c(c1)S(=O)(=O)c1ccccc1C2=O,inactive: 7.22%
14,CC(=O)N1c2c(cc(Br)cc2S(=O)(=O)N2CCCCC2)CC1C (centres undefined),inactive: 7.38%
15,CCc1ccc2c(c1)C(c1ccc([N+](=O)[O-])cc1)=NNC(c1ccc(Br)cc1)=N2,inactive: -32.9%
16,Cc1cccc(C)c1NC(=S)N1CCCCCC1,inactive: 19.1%
17,O=C(NCC1CCCCC1)c1ccc2nc([C@@H]3O[C@H](CO)[C@@H](O)[C@H]3O)[nH]c2c1,inactive: 6.09%
18,COc1ccc(S(=O)(=O)N(CC(=O)NCCSc2ccccn2)c2ccccc2)cc1,inactive: 12.1%
19,COc1ccccc1NC(=O)N1CCN(Cc2ccc3c(c2)OCO3)CC1,inactive: 4.08%
20,CN1CCN(C2=NC(=O)/C(=C/c3ccccc3OS(=O)(=O)c3ccccc3)S2)CC1,inactive: -0.859%
21,O=c1[nH]ncc(N2CCCCCC2)c1Cl,inactive: 3.33%
22,COc1ccc(CCNC(=O)COC(=O)c2cccn2C)cc1,inactive: 20%
23,COc1cc(CCN2C(=O)c3cccc4cccc(c34)C2=O)c(S(=O)(=O)N2CCC(C)CC2)cc1OC,inactive: -14%
24,Cc1ccc(CSc2ccc(S(=O)(=O)N3CCCCC3)cn2)cc1,inactive: 16.4%
25,Cn1c(N)c(C(=O)COC(=O)c2ccccc2C(=O)c2ccc(Cl)c([N+](=O)[O-])c2)c(=O)n(C)c1=O,inactive: 5.03%
26,O=C(c1ccc(F)cc1)c1cc2ccc(O)cc2oc1=O,inactive: -44.8%
